Whole data set: some 33,000 sequences, median “E-score (-0.5 to 0.5)” near -0.032, cut for the highest 2% near 0.36. Some of the results follow.
What follows are sequences tested against T1, Sko1 (UniProt Q02100) (assay: PBM E-score (8-mer binding enrichment) (E-score (-0.5 to 0.5)); higher = stronger / more preferred TF binding; most listed sequences are background and not binding sites). Conditions: protein concentration: 200 nM; construct: GST-full length.
T1 sequence: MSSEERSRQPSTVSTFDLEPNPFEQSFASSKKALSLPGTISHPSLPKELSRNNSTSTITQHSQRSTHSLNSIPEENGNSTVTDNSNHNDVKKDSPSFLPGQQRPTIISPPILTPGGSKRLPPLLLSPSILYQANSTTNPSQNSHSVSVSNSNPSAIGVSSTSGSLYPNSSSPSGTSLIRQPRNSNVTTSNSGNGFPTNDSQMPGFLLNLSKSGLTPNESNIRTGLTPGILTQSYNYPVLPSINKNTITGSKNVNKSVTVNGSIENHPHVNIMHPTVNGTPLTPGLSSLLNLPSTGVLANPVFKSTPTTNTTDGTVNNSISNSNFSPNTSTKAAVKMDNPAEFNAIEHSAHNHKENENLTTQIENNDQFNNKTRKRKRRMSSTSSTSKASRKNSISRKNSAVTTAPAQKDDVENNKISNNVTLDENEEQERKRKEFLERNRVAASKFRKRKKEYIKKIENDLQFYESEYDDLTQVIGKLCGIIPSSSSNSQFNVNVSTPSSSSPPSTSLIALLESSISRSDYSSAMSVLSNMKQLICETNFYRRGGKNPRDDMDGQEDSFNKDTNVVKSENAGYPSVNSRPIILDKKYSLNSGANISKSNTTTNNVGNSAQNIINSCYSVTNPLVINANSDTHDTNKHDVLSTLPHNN
Experimental: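 Universal 'all 10-mer' protein binding microarrays (Agilent AMADID 015681) probed with GST-tagged S. cerevisiae TFs (full-length or DBD) made by in vitro transcription/translation (PURExpress), about 100-200 nM. Bound TF was detected with fluorescent anti-GST. Each ungapped 8-mer (which stands for itself and its reverse complement) is scored by the PBM enrichment score (E-score), a modified Wilcoxon-Mann-Whitney statistic from -0.5 to +0.5, computed with the Universal PBM Analysis Suite. Scale: above 0.35 generally sequence-specific binding.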

Going from ATGCTTTG to ATAATTAT, the “PBM E-score” value rises from 0.0473 to 0.326.

First: ACCTTTCT
Second: CTTGTGCC
The “PBM E-score” value of the first is higher: 0.00318 for the first, -0.136 for the second.

First: ATAAATGC
Second: CCTCTACC
The “PBM E-score” value of the first is higher: 0.0441 for the first, -0.298 for the second.

First: ACAGAGGG
Second: ATCAACCG
The “PBM E-score” value of the first is lower: -0.238 for the first, 0.00155 for the second.

First: CCCCAGGC
Second: ATTGTATC
The “PBM E-score” value of the first is lower: -0.404 for the first, 0.132 for the second.

Compared with CTCACGGA, ACACTGCC is higher in “PBM E-score” value: -0.13 for the first, -0.0648 for the second.

Going from ATTGGGAC to CCTTGCGC, the “PBM E-score” value falls from -0.0244 to -0.223.

Going from CCTACACG to ACAGCAGA, the “PBM E-score” value falls from 0.065 to -0.163.

Going from CCAAAGGG to GGACATCC, the “PBM E-score” value falls from -0.245 to -0.323.

First: TTAATGAA
Second: GCTTCCCA
The “PBM E-score” value of the first is higher: 0.185 for the first, -0.117 for the second.

First: CTATCAAC
Second: ATATCGAT
The “PBM E-score” value of the first is higher: 0.106 for the first, 0.0401 for the second.

First: AAAGCTTC
Second: CTATGCTA
The “PBM E-score” value of the first is lower: -0.0511 for the first, 0.0609 for the second.

Compared with ATGTTGAC, GAGTCTAC is lower in “PBM E-score” value: 0.261 for the first, 0.00139 for the second.

Going from CAGGGGGA to GTTTCTAA, the “PBM E-score” value rises from -0.259 to 0.0384.

First: CAGTGCAA
Second: GGCGTTTA
The “PBM E-score” value of the first is higher: 0.0698 for the first, 0.00604 for the second.

Compared with GTTTACTA, CAAATTTG is lower in “PBM E-score” value: 0.152 for the first, -0.0299 for the second.

Compared with TACACCCA, ACCAGTCA is lower in “PBM E-score” value: -0.0332 for the first, -0.0685 for the second.

Compared with ATAAATTA, GTTGACGA is lower in “PBM E-score” value: 0.292 for the first, 0.212 for the second.

Compared with CACCATAC, CCAATCCC is lower in “PBM E-score” value: -0.0714 for the first, -0.216 for the second.

Compared with CAACTCTC, AAGTTAAC is higher in “PBM E-score” value: -0.163 for the first, 0.161 for the second.

Compared with CGTATGTC, ACTATCTC is lower in “PBM E-score” value: 0.321 for the first, 0.123 for the second.

Going from ATCGTTAA to CTATTTTA, the “PBM E-score” value rises from 0.159 to 0.175.

First: AGTGGTCC
Second: CCTGGTAC
The “PBM E-score” value of the first is lower: -0.141 for the first, -0.0662 for the second.

First: GTAATGTA
Second: CCAACAAG
The “PBM E-score” value of the first is higher: 0.283 for the first, -0.0384 for the second.

Compared with CGTTACAG, AGGGTTCA is lower in “PBM E-score” value: 0.0116 for the first, -0.0666 for the second.

First: GTTACACA
Second: ATAATAGG
The “PBM E-score” value of the first is higher: 0.129 for the first, 0.114 for the second.

Going from ATCATGTC to ACTGTACT, the “PBM E-score” value falls from 0.14 to -0.28.

Going from CTCTATTA to CAGAGGGG, the “PBM E-score” value falls from 0.0194 to -0.281.

Going from AAGGCTAG to ACCCTGTA, the “PBM E-score” value falls from -0.0969 to -0.222.

Compared with CGTTGGCC, CCCACGAC is higher in “PBM E-score” value: -0.151 for the first, -0.122 for the second.

Going from TCGGGGAA to AATTGAGC, the “PBM E-score” value falls from -0.0484 to -0.13.

Going from CCAACTCC to CGGGTTAG, the “PBM E-score” value falls from 0.1 to -0.322.

First: AGTCCGCG
Second: AAGGTCAG
The “PBM E-score” value of the first is higher: -0.0968 for the first, -0.192 for the second.

Compared with GAGTGAGC, GGGAACAA is higher in “PBM E-score” value: -0.221 for the first, 0.0217 for the second.

First: CTATTGGC
Second: CGAGGGAA
The “PBM E-score” value of the first is lower: -0.207 for the first, -0.154 for the second.

Going from ACTCGTCT to AATTTCAC, the “PBM E-score” value rises from -0.0567 to -0.0415.

Going from ACATCTTA to AAGCACTC, the “PBM E-score” value falls from 0.177 to -0.263.

Going from GCGGAGCA to CGCATAGC, the “PBM E-score” value rises from -0.178 to 0.0848.

Going from ACGAAGAT to ACACTGTC, the “PBM E-score” value falls from 0.0179 to -0.122.

Compared with GAGAATTA, AGAATCCA is lower in “PBM E-score” value: 0.0781 for the first, 0.00458 for the second.

Going from ACCTCCGG to GTATGTTA, the “PBM E-score” value rises from -0.282 to 0.28.

Going from AAGATATT to GATTAGTA, the “PBM E-score” value falls from 0.0367 to 0.0223.

Compared with CGACTCGC, GATTAATA is higher in “PBM E-score” value: -0.0539 for the first, 0.213 for the second.

Compared with GGGGAATA, TAAAACAA is higher in “PBM E-score” value: -0.0497 for the first, 0.169 for the second.

Going from ATAACGAC to ACCAGACC, the “PBM E-score” value falls from 0.241 to -0.0732.

Compared with CCAACGAC, GTCTCAGA is lower in “PBM E-score” value: -0.0877 for the first, -0.0958 for the second.

Going from CGATAAAC to GTACCGTA, the “PBM E-score” value rises from 0.00721 to 0.036.

First: CAAACGTA
Second: ACTGACCT
The “PBM E-score” value of the first is higher: 0.416 for the first, -0.16 for the second.

Compared with GGAAAACA, GATTGGGC is lower in “PBM E-score” value: -0.0739 for the first, -0.1 for the second.

Going from CTCTATCA to CAGTACGG, the “PBM E-score” value rises from -0.134 to -0.113.

First: ATGTTTTG
Second: AGGCTACC
The “PBM E-score” value of the first is higher: 0.109 for the first, -0.183 for the second.

First: CGCTATAC
Second: GCGTCAGC
The “PBM E-score” value of the first is lower: 0.0594 for the first, 0.209 for the second.

Compared with GCTTGCCC, AAATTGCA is higher in “PBM E-score” value: -0.218 for the first, 0.0228 for the second.

Going from AGTTGTCC to GTCTACGA, the “PBM E-score” value rises from -0.0106 to 0.104.

First: ATTGAGTC
Second: CGGAACGA
The “PBM E-score” value of the first is lower: 0.021 for the first, 0.0776 for the second.

Going from GTCTAACA to GCGCGATA, the “PBM E-score” value rises from -0.0034 to 0.147.

First: AGGACAAA
Second: TGCAGAAA
The “PBM E-score” value of the first is lower: 0.0912 for the first, 0.206 for the second.

First: CATCTATC
Second: TCGGGACA
The “PBM E-score” value of the first is lower: -0.0653 for the first, -0.0513 for the second.

First: AGTAGGTG
Second: AAACCGCA
The “PBM E-score” value of the first is higher: -0.0905 for the first, -0.121 for the second.

Compared with GACCCTGA, CACGTTCA is higher in “PBM E-score” value: -0.189 for the first, 0.171 for the second.

Going from CCCGGTTC to AAACCCGT, the “PBM E-score” value rises from -0.287 to 0.0806.

Compared with CCGGCTTA, GATTCAGA is higher in “PBM E-score” value: -0.268 for the first, 0.0385 for the second.

Going from CCCTACAG to ACGCTTCA, the “PBM E-score” value rises from -0.328 to -0.056.

Compared with ATCTTCAC, ACATATGT is higher in “PBM E-score” value: 0.059 for the first, 0.29 for the second.

First: AGCTCCCC
Second: ACAGCGGC
The “PBM E-score” value of the first is higher: -0.221 for the first, -0.238 for the second.

Compared with CGATCTGA, ACGGTGTC is lower in “PBM E-score” value: -0.0245 for the first, -0.138 for the second.

Compared with CTCTCCAG, GACCGCTC is higher in “PBM E-score” value: -0.425 for the first, -0.21 for the second.

Going from GCGATCAC to AAAAATAT, the “PBM E-score” value rises from -0.121 to 0.247.

Compared with GGCTCAAA, CCAACCTC is higher in “PBM E-score” value: -0.233 for the first, -0.00411 for the second.

Going from ACTCGCCC to CTTGGCGA, the “PBM E-score” value rises from -0.31 to -0.289.

First: AAGAGCTA
Second: AGACCAAC
The “PBM E-score” value of the first is higher: 0.0618 for the first, -0.231 for the second.

Going from CAAGGATG to CTACATAA, the “PBM E-score” value rises from -0.0796 to 0.194.

Compared with GTTGCAAC, CATAGGCC is lower in “PBM E-score” value: 0.254 for the first, -0.145 for the second.

Compared with CCTGGAGC, ACTATTAC is higher in “PBM E-score” value: -0.0971 for the first, 0.283 for the second.

Going from TATAACCA to CTAAAGTC, the “PBM E-score” value falls from 0.154 to -0.217.

Going from ACGGCCGG to AATCTTGC, the “PBM E-score” value rises from -0.203 to 0.0785.

First: TAAGCGAA
Second: ACATTTGA
The “PBM E-score” value of the first is lower: 0.0172 for the first, 0.224 for the second.

First: GTCAGCAA
Second: ACCATCGA
The “PBM E-score” value of the first is higher: 0.196 for the first, -0.0293 for the second.

First: AGCCATTA
Second: TGACATCA
The “PBM E-score” value of the first is lower: 0.194 for the first, 0.466 for the second.

First: ACACGTTC
Second: AAGAAACC
The “PBM E-score” value of the first is higher: 0.214 for the first, -0.0881 for the second.

Going from TAATTAGA to AATGCCGG, the “PBM E-score” value falls from 0.208 to -0.119.

First: TAACCGTA
Second: GGACCCAA
The “PBM E-score” value of the first is higher: 0.125 for the first, -0.267 for the second.

First: GCTATTCA
Second: ATCCAGGG
The “PBM E-score” value of the first is higher: 0.0226 for the first, -0.258 for the second.

Going from AGTCCGGG to CTGCCTAC, the “PBM E-score” value rises from -0.393 to 0.0288.

Going from CGTCGCCA to GCCAGCTA, the “PBM E-score” value falls from 0.0172 to -0.0417.

Going from CGGGTGAA to GGCCGGAC, the “PBM E-score” value falls from -0.0747 to -0.213.
